Several values for one entry are separate records, joined by “and”; a condition that tells them apart may be missing. Equal values may be shown once. Among all 410,000 compounds or so, about 5,000 (1.2%) were called active. The inconclusive results got no clear call from the source; some entries with a clear call stand among them for comparison. Calls come from the whole dose curve; as a rule, active = well fitted inhibition curve with a large enough effect; inconclusive = small, poorly fitted or top-dose-only effect; inactive = no such curve, though single readings can be large or run the other way. A potency beside an inconclusive call is a rough fit, not a confirmed value.
Assay: qHTS for Inhibitors of TGF-b; note: nearly all actives have a fitted effect of over 65% in size
Conditions: HepG2 CAGA-GFP TGF-b/SMAD3 reporter, GFP fluorescence, 18 h, TGF-beta stimulated, 500 pg/mL final; series mostly up to 46.1 µM
Method in brief: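 Cell-based qHTS in HEPG2 carrying a CAGA-GFP Smad reporter; compounds added before 500 pg/mL final TGF-beta, 18 h incubation at 37 degrees C, GFP fluorescence quantified per cell by imaging cytometry.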
Potency is the fitted concentration of half-maximal effect; tags give direction and shape of the fitted curve.

Compound | Potency
Nc1ccccc1-n1c(=O)n(Cc2ccccc2F)c(=O)c2[nH]cnc21 | inactive
Cc1cc(NCCCn2ccnc2)n2ncc(-c3ccc(Cl)cc3)c2n1 | inconclusive: 35.5 µM [inhibitor, single point]
O=c1[nH]c2cc3c(cc2cc1CN(Cc1ccccc1)Cc1nnnn1Cc1ccco1)OCCO3 | inactive
COC(=O)c1ccccc1NC(=O)c1ccc(COc2ccc(C)c(C)c2)o1 | inconclusive: 0.708 µM [inhibitor, full curve, poor fit]
O=S(=O)(NCc1c(Cl)cccc1Oc1ccccc1)c1ccccc1 | inconclusive: 12.6 µM [inhibitor, partial curve, poor fit]
COc1cccc(C(=O)Nc2cccc(NC(=O)c3ccc(Cl)cc3Cl)c2)c1 | inconclusive: 10 µM [inhibitor, partial curve, poor fit]
Cc1ccc(C)c(N2CCN(C(=O)c3cc4c(=O)n(Cc5ccco5)ccc4nc3C)CC2)c1 | inconclusive: 20 µM [inhibitor, partial curve, poor fit]
CCC(C)(C)n1nnnc1C(c1ccncc1)N1CCC(Cc2ccccc2)CC1 (centres undefined) | inconclusive: 35.5 µM [inhibitor, single point]
Cc1ccc(Nc2nc(N)nc(CN3CCN(Cc4ccc5c(c4)OCO5)CC3)n2)cc1 | inconclusive: 12.6 µM [inhibitor, partial curve, poor fit]
Cc1cccc(-n2c(-c3ccccc3)c[nH]c2=S)c1C | inconclusive: 35.5 µM [inhibitor, single point]
COCC(C)n1c(C)cc(C(=O)COC(=O)c2cccn2C)c1C (centres undefined) | inactive
CCc1ccc(OCCNC(=O)c2ccccc2SCc2ccc(F)cc2)cc1 | inconclusive: 22.4 µM [inhibitor, single point]
Cc1cccc(CN2CCCC(C(=O)c3ccc4c5c(cccc35)CC4)C2)n1 (centres undefined) | active: 10 µM
O=S(=O)(NCCSCc1ccc(Cl)cc1Cl)c1ccc2c(c1)OCCO2 | inconclusive: 35.5 µM [inhibitor, single point]
O=C(c1ccc(Cl)c([N+](=O)[O-])c1)N1CCN(C(=O)c2ccco2)CC1 | inactive
COc1ccccc1OCCCCOc1ccccc1F | inconclusive: 35.5 µM [inhibitor, single point]
O=[N+]([O-])c1cc(Br)cc(C=Nc2ccc3c(c2)OCO3)c1O | inconclusive: 12.6 µM [inhibitor, partial curve, poor fit]
COc1cc(C(=O)N2CCN(CC(O)COc3ccccc3)CC2)cc(OC)c1OC (centres undefined) | inconclusive: 6.31 µM [inhibitor, single point]
O=C(c1ccc(S(=O)(=O)Cc2ccccc2Cl)c([N+](=O)[O-])c1)N1CCN(c2ccccn2)CC1 | inconclusive: 35.5 µM [inhibitor, single point]
CC(=O)Nc1cccc(NC(=O)Cc2nc(-c3ccccc3)sc2-c2ccc(C)cc2)c1 | inconclusive: 8.91 µM [inhibitor, partial curve, poor fit]
COc1cc(SC)ccc1C(=O)NCCOc1c(C)cc(C)cc1C | inactive
Cn1cnnc1SCC(=O)N1CCc2ccccc2C1 | inconclusive: 35.5 µM [inhibitor, single point]

Compound | Potency
Cc1cccc(C)c1N=C1NN=C(c2ccccc2F)CS1 | inconclusive: 6.31 µM [inhibitor, single point]
Cc1ccccc1Cn1cc(CCC(=O)N2CCOCC2)c2ccccc21 | inconclusive: 35.5 µM [inhibitor, single point]
C=CC(=O)N(CCC)C(c1ccccc1)c1ccccc1OC (centres undefined) | inconclusive: 0.447 µM [inhibitor, full curve, poor fit]
CCc1ccc(-c2csc(-c3c[nH]c4ccccc34)n2)cc1 | inconclusive: 3.98 µM [inhibitor, full curve, poor fit]
O=[N+]([O-])c1ccc(N2CCN(c3ccc(O)cc3)CC2)cn1 | inactive
CCn1cc(C(=O)N2CCN(c3cccc(Cl)c3)CC2)c2cc(OC)c(OC)cc2c1=O | inconclusive: 447 nM [inhibitor, full curve, poor fit] and inconclusive: 14.1 µM [inhibitor, partial curve]
CC1=C(c2ccc(C(C)C)cc2)S(=O)(=O)NC1=NCCCN1CCN(c2ccccc2F)CC1 | inconclusive: 1.12 µM [inhibitor, full curve, poor fit]
Cc1cc(C)nc(/N=C(\N)Nc2ccc(OCCC(C)C)cc2)n1 | inconclusive: 0.282 µM [inhibitor, full curve, poor fit]
Cc1cc(CSc2ccccc2)ccc1NC(=O)c1ccc(CN2CCOCC2)cc1 | inconclusive: 3.55 µM [inhibitor, single point]
OC(c1ccc(F)cc1)c1ncc(-c2ccc3ccccc3c2)[nH]1 (centres undefined) | inconclusive: 20 µM [inhibitor, single point]
CCCn1cc(SCC(=O)NCc2ccco2)c2ccccc21 | inactive
FC(F)(F)c1ccc(Cl)c(Nc2nnc(-c3ccncc3)s2)c1 | inactive
CSS(=O)(=O)c1cccc2cccnc12 | inconclusive: 35.5 µM [inhibitor, single point]
C/C=C/C1=CC(=O)C[C@H](c2ccc(F)cc2)C1 | inconclusive: 1.12 µM [inhibitor, partial curve, poor fit]
COc1cccc(-c2cc3onc(-c4ccccc4)c3c(=O)n2C)c1 | inconclusive: 7.94 µM [inhibitor, partial curve, poor fit]
O=C(COc1ccc(/C=N/NC(=O)c2ccccc2)cc1)Nc1ccc([N+](=O)[O-])cc1 | inactive
COc1ccc(-c2nc3ccc(Cl)cn3c2Cc2ccccc2C(F)(F)F)cc1OC | inconclusive: 11.2 µM [inhibitor, partial curve]
COc1ccc(CCNc2ccc(C(=O)O)cc2[N+](=O)[O-])cc1OC | inactive
Cc1cc(C)c(C)c(S(=O)(=O)N2CCC(C(=O)N(C)Cc3nc4ccccc4c(=O)[nH]3)CC2)c1C | inconclusive: 35.5 µM [inhibitor, single point]
C=CCn1c(SCC(=O)c2ccc(O)c(O)c2)nnc1-c1cccc(Cl)c1 | inconclusive: 6.31 µM [inhibitor, single point]
CCOC(=O)c1c(/N=C/c2cc([N+](=O)[O-])ccc2O)sc(C)c1C | inactive
CC1CCc2sc(C(=O)N(C)CC(=O)Nc3cccc(F)c3)cc2C1 (centres undefined) | inconclusive: 17.8 µM [inhibitor, single point]

Compound | Potency
COC(=O)c1ccc2nc(-c3cccc(Br)c3)c(Cc3ccc(OC)cc3C)n2c1 | inconclusive: 35.5 µM [inhibitor, single point]
Cc1ccc2c(c1)N=C(c1ccc(F)cc1)CO2 | inconclusive: 3.16 µM [inhibitor, single point]
O=C(NCCCN1CCN(c2ccc(F)cc2)CC1)c1cnn(-c2ccc(F)cc2)c1-n1cccc1 | inconclusive: 20 µM [inhibitor, single point]
CCc1ccc(NC(=O)CSc2ccc(-c3ccccn3)nn2)cc1 | inconclusive: 5.01 µM [inhibitor, partial curve, poor fit] and inconclusive: 35.5 µM [inhibitor, single point]
Cc1csc(NC(=O)CCc2c(C)nc3cc(-c4ccc(Cl)cc4)nn3c2C)n1 | inconclusive: 1 µM [inhibitor, full curve, poor fit]
OCC(Cc1ccccc1)Nc1c2ccccc2nc2ccccc12 (centres undefined) | inconclusive: 20 µM [inhibitor, single point]
COC(=O)c1cc(-c2ccc(S(=O)(=O)N3CCCCC3)cc2)c(C(F)(F)F)s1 | inactive
O=C(COc1ccccc1C(=O)Nc1cccc([N+](=O)[O-])c1)Nc1ccc(Br)cc1 | inconclusive: 3.98 µM [inhibitor, full curve]
CC(NC(=O)c1cccnc1)C(c1cccs1)N1CCOCC1 (centres undefined) | inconclusive: 14.1 µM [inhibitor, single point]
Nc1nonc1-n1nnc(C(=O)N/N=C/c2cccs2)c1-c1ccc2c(c1)OCO2 | inactive
CN(CC(=O)NCC1CCCO1)S(=O)(=O)c1ccc2ccccc2c1 (centres undefined) | inactive
CCc1cccc(NS(=O)(=O)c2ccc(-n3cccn3)cc2)c1 | inconclusive: 35.5 µM [inhibitor, single point]
CCN(CC)C(=O)Cn1c(=O)n(-c2ccc(C)c(C)c2)c(=O)c2c3c(sc21)CCCCC3 | inactive
Cc1ccc2c(C)nc(Nc3nc(CSc4nc5ccccc5[nH]4)cc(=O)[nH]3)nc2c1 | inconclusive: 2.51 µM [inhibitor, full curve, poor fit]
CC1=CC(C)C2C(=O)N(CCCN(C)C)C(=O)C2C1 (centres undefined) | inconclusive: 5.62 µM [inhibitor, single point]
CCCCS(=O)(=O)CC(O)CSc1nc(-c2ccc(C)cc2)cc(-c2ccccc2)c1C#N (centres undefined) | inconclusive: 1.58 µM [inhibitor, partial curve, poor fit]
Cc1ccccc1-c1noc(-c2cccnc2N2CCN(c3ccccc3)CC2)n1 | inactive
CC(OC(=O)c1ccccc1C(=O)N(C)c1ccccc1)C(=O)Nc1ccccc1[N+](=O)[O-] (centres undefined) | inconclusive: 6.31 µM [inhibitor, single point]
COc1ccc(CC2(CO)CCN(Cc3ccc4c(c3)CCO4)CC2)cc1 | inactive
Cc1ccccc1CN1C(=O)[C@@H]2Cc3c([nH]c4ccccc34)C(C)(C)N2C1=O | inconclusive: 35.5 µM [inhibitor, single point]

From PubChem BioAssay AID588855 (National Center for Advancing Translational Sciences (NCATS), 2011)
